From PubChem BioAssay AID1476 (National Center for Advancing Translational Sciences (NCATS), 2009)
Screen size: about 200,000 compounds; about 4,500 (2.2%) were called active. Inconclusive means that the source gave no clear call. Such entries were picked first, then a sample of the others. Calls come from the whole dose curve; as a rule, active = well fitted inhibition curve with a large enough effect; inconclusive = small, poorly fitted or top-dose-only effect, or effect the other way; inactive = flat fitted curve, though single readings scatter. Potencies beside an inconclusive call are fits to weak or partial responses and may not hold up.

molecular target: Cruzipain (Trypanosoma cruzi) (UniProt P25779); test: qHTS Assay for Promiscuous and Specific Inhibitors of Cruzain (without detergent); details: purified cruzain, Z-FR-AMC fluorescence, no detergent; note: nearly all actives have a fitted effect of over 40% in size;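 for max response, negative = inhibition: plate controls were enzyme without inhibitor for no effect and buffer without enzyme for full effect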
Method in brief: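 Detergent-free condition (0.00005% Triton X-100) in acetate buffer pH 5.5 with DTT. 1.5 nM enzyme and compound were pre-mixed 15 min, then 2 uM Z-FR-AMC substrate added; reaction progress from fluorescence change between first and third reads (60 s).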
Potency is the fitted concentration of half-maximal effect; tags give direction and shape of the fitted curve.

Chain of UniProt P25779 (P25779 whole entry, looked up): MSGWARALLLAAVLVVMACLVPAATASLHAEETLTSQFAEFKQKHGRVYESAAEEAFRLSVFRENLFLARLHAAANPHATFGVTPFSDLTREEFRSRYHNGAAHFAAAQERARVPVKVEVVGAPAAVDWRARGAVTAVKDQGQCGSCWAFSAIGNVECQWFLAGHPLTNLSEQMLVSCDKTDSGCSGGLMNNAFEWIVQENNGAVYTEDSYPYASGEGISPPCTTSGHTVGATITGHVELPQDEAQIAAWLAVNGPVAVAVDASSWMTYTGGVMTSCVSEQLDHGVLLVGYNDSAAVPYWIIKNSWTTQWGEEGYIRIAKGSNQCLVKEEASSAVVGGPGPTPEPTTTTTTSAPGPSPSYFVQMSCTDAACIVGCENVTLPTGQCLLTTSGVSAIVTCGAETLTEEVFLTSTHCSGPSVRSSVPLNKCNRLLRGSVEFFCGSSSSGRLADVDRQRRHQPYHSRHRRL

Row | SMILES | max response, negative = inhibition | Potency
1 | Cc1ccc(NC(=O)CSc2n[nH]c(-c3ccc(F)cc3)n2)cc1F | inactive: -8.79% | –
2 | Cc1ccc(C(=O)N[C@H](C(=O)OCC(=O)c2ccc[nH]2)C(C)C)cc1 | – | inconclusive: 20 µM [inhibitor, partial curve, poor fit]
3 | Nc1ccc2nc(SCC(=O)Nc3ccc(N4CCOCC4)c(Cl)c3)sc2c1 | – | inconclusive: 31.6 µM [inhibitor, single point]
4 | Cc1ccc(CN2CCCn3nc(C(=O)NCc4ccc(OC(C)C)cc4)cc3C2=O)cc1 | – | inconclusive: 31.6 µM [activator, single point]
5 | COc1ccc(-c2nn(-c3ccccc3)cc2/C=N/NC(=O)c2cccc(S(=O)(=O)Nc3ccccc3OC)c2)cc1 | – | active: 10 µM
6 | COc1ccc(N=c2oc3c(OC)cccc3cc2C(=O)NCc2ccco2)cc1OC | – | inconclusive: 39.8 µM [activator, single point]
7 | CCCCCCNC(=O)c1c(O)c2ccccc2[nH]c1=O | – | active: 25.1 µM
8 | CCN(CC)CCNC(=O)C1CCN(c2cc(C)nc3c(-c4ccc(Cl)cc4)c(C)nn23)CC1 | inactive: -5.93% | –
9 | CCOC(=O)C(=O)Nc1ccc(S(=O)(=O)N2CCOCC2)cc1OC | – | inconclusive: 12.6 µM [inhibitor, partial curve]
10 | Cc1ccccc1S(=O)(=O)Cc1ccc(C(=O)N2CCN(c3ccc(F)cc3)CC2)o1 | – | inconclusive: 39.8 µM [activator, single point]
11 | C=CCn1c(=O)c(C#N)cc2c(=O)n3ccccc3nc21 | – | inconclusive: 31.6 µM [inhibitor, single point]
12 | CCOC(=O)c1sc2nc(SCC(=O)NCc3ccco3)n(Cc3ccccc3)c(=O)c2c1C | – | active: 7.94 µM
13 | Cc1c([N+](=O)[O-])cc(C(=O)Oc2ccc(Br)cc2C(=S)N2CCCCC2)cc1[N+](=O)[O-] | – | active: 25.1 µM
14 | COc1cc(/C=C/C(=O)OCC(=O)Nc2cccc(Oc3ccccc3)c2)ccc1O | – | inconclusive: 25.1 µM [inhibitor, single point]
15 | COc1cc(-c2nnc(COC(=O)c3cc(C)nc4ccc(C)cc34)o2)cc(OC)c1OC | – | inconclusive: 31.6 µM [activator, single point]
16 | Cc1ccc(C)c(CSc2ccc3nnc(CCNS(=O)(=O)c4ccccc4)n3n2)c1 | – | inconclusive: 25.1 µM [activator, single point]
17 | CCOCCn1c(CN2CCN(c3cccc(Cl)c3)CC2)nc2c1c(=O)n(C)c(=O)n2C | – | inconclusive: 25.1 µM [activator, partial curve]
18 | CN(C)c1ccc(-c2nn3c(-c4ccc(Cl)cc4Cl)nnc3s2)cc1 | – | inconclusive: 12.6 µM [inhibitor, partial curve, poor fit]
19 | O=C(OC(c1ccccc1)c1nccc2ccccc12)c1cccc([N+](=O)[O-])c1 (stereo not drawn) | – | inconclusive: 39.8 µM [inhibitor, single point]
20 | COc1ccc2c(c1)O[C@@H](c1ccc3c(c1)OCO3)[C@H](OC(=O)Nc1ccc(C)c(Br)c1)C2=O | – | inconclusive: 31.6 µM [inhibitor, single point]
21 | Cc1ccccc1C(=O)Nc1ccc(C(=O)NNC(=O)CCCOc2ccc(Cl)cc2Cl)cc1 | – | active: 10 µM

Row | SMILES | max response, negative = inhibition | Potency
22 | CNC(=O)c1cc2c(=O)n3cccc(C)c3nc2n(C(C)C)c1=N | – | inconclusive: 39.8 µM [inhibitor, single point]
23 | COc1ccc(NC(=O)C2CCCN2S(=O)(=O)c2ccc3c(c2)CCC(=O)N3)cc1Cl (stereo not drawn) | inactive: 1.72% | –
24 | COc1ccccc1N1CCN(C(=O)CCc2nnc3n(C)c(=O)c4sccc4n23)CC1 | inactive: -6.85% | –
25 | COc1cc(C(=O)NCc2ccc(-c3nc4ccccc4s3)cc2)cc(OC)c1OC | – | inconclusive: 39.8 µM [activator, single point]
26 | O=C(c1ccco1)n1nc(-c2ccc(Cl)cc2)nc1NCc1ccccc1 | inactive: 14.9% | –
27 | CCc1ccc(NC(=O)Cn2c(=O)n(Cc3nc(-c4ccccc4)no3)c(=O)c3cc4c(cc32)OCO4)cc1 | – | active: 15.8 µM
28 | CCC(Sc1ncnc2sc3c(c12)CCCC3)C(=O)OC(C)C (stereo not drawn) | inactive: -5.88% | –
29 | N/C(=N\N=C\c1ccnc2ccccc12)SC1CC(=O)N(c2ccc(Br)cc2)C1=O (stereo not drawn) | – | active: 10 µM
30 | O=C(CCc1nc2ccccc2[nH]1)Nc1ccc2c(c1)OCO2 | – | inconclusive: 31.6 µM [inhibitor, single point]
31 | N#Cc1c(N)nc2c(c1-c1ccc(Br)s1)CCCC2 | – | inconclusive: 31.6 µM [inhibitor, single point]
32 | CCOC(=O)c1sc(NC(=O)CSc2nc3ccccc3s2)c(C(=O)OCC)c1C | – | active: 20 µM
33 | Cc1ccc(-n2[nH]c(C)c(C=Nc3ccc(S(=O)(=O)Nc4nccs4)cc3)c2=O)cc1C | – | inconclusive: 10 µM [activator, partial curve]
34 | Cc1[nH]c2ccccc2c1/C=N/Nc1ccc([N+](=O)[O-])cc1 | – | active: 25.1 µM
35 | c1ccc(-c2csc3ncnc(N4CCc5ccccc5C4)c23)cc1 | – | inconclusive: 25.1 µM [inhibitor, single point]
36 | COc1ccc(/C=C2\CN(Cc3ccccc3)C/C(=C\c3ccc(OC)cc3OC)C2=O)c(OC)c1 | – | inconclusive: 31.6 µM [inhibitor, single point]
37 | Cc1ccc(N/N=C/c2ccc3c(c2)OCCO3)cc1Cl | – | active: 20 µM
38 | Cc1cc(C)c2[nH]c(=O)c(C(c3nnnn3CC3CCCO3)N3CCCC(C)C3)cc2c1 (stereo not drawn) | – | inconclusive: 39.8 µM [activator, single point]
39 | CCC1CN(C(=O)C2CCN(S(=O)(=O)c3c(C)noc3/C=C/c3ccccc3F)CC2)c2cc(Cl)ccc2O1 (stereo not drawn) | – | active: 3.16 µM
40 | Cc1cccc(OCCCC(=O)Nc2ccc(S(=O)(=O)Nc3onc(C)c3C)cc2)c1C | – | inconclusive: 39.8 µM [activator, single point]
41 | CCOC(=O)CSc1nc2c([nH]c3ccccc32)c(=O)n1-c1ccc(OC)cc1 | inactive: -1.07% | –
42 | N#CCc1c(C#N)c(N)nc(N2CCN(S(=O)(=O)c3ccccc3)CC2)c1C#N | – | inconclusive: 31.6 µM [inhibitor, single point]

Row | SMILES | max response, negative = inhibition | Potency
43 | CCCN(CCC)CCNC(=O)CN1C(=O)COc2ccc(S(=O)(=O)N3CCC(C)CC3)cc21 | inactive: 13.5% | –
44 | CC(=O)Nc1ccc(-c2nnc(SCc3c(C)cc(C)cc3C)n2C)cc1 | – | inconclusive: 31.6 µM [activator, single point]
45 | COc1cccc(-c2nnc(Nc3nc4c(F)cccc4s3)o2)c1 | – | inconclusive: 12.6 µM [inhibitor, partial curve]
46 | CC(=O)Oc1cc2c(cc1Cl)C1(CC(c3ccccc3Cl)O2)CC(C)(C)NC(=S)N1 (stereo not drawn) | – | inconclusive: 39.8 µM [inhibitor, single point]
47 | CCOc1ccc(/C=C/c2nc(C#N)c(N3CCCCC3)o2)cc1 | inactive: -2.35% | –
48 | Cc1cc(C(=O)OCC(=O)Nc2cc(S(=O)(=O)N3CCOCC3)ccc2Cl)c(C)o1 | – | inconclusive: 25.1 µM [activator, single point]
49 | O=C(COC(=O)c1sc2ccccc2c1Cl)Nc1ncc(Cl)cc1Cl | – | inconclusive: 39.8 µM [inhibitor, single point]
50 | CC(=O)Nc1ccc(C(=O)OCC(=O)Nc2ccc(Cl)cc2C(=O)c2ccccc2)cc1 | – | inconclusive: 39.8 µM [activator, single point]
51 | O=C(CSc1nc2ccc([N+](=O)[O-])cc2[nH]1)c1ccc2ccccc2c1 | – | inconclusive: 31.6 µM [inhibitor, single point]
52 | CCc1ccc(NC(=O)C2CCCN(S(=O)(=O)c3ccc4c(c3)CCCN4C(C)=O)C2)cc1 (stereo not drawn) | – | inconclusive: 39.8 µM [activator, single point]
53 | CCCN(CC1CC1)C(=O)COC(=O)c1[nH]c(C)c(C(=O)OCC)c1C | – | inconclusive: 20 µM [activator, partial curve]
54 | COc1ccc(/C=C\c2onc(C)c2S(=O)(=O)N2CCC(C(=O)Nc3ccc(Cl)cc3)CC2)cc1 | inactive: -29.9% | –
55 | CCOc1cc(-c2nnc(SCC(=O)NCc3ccccc3)nc2-c2ccc(OC)c(OCC)c2)ccc1OC | – | inconclusive: 31.6 µM [activator, partial curve]
56 | Cc1nc(NC(=O)c2oc3ccccc3c2C)sc1C(=O)N(C)C | – | inconclusive: 39.8 µM [activator, single point]
57 | COc1ccc(OC)c(C(c2nnnn2CCC(C)C)N2CCN(C(=O)c3ccco3)CC2)c1 (stereo not drawn) | – | inconclusive: 31.6 µM [activator, single point]
58 | Cc1ccc(-c2csc3ncnc(Oc4ccc5c(C)cc(=O)oc5c4)c23)cc1 | – | inconclusive: 39.8 µM [inhibitor, single point]
59 | COc1cccc(-c2cc(C(F)(F)F)n3nc(C(=O)N4CCC5(CC4)OCCO5)cc3n2)c1 | – | inconclusive: 31.6 µM [activator, single point]
60 | CCO/C=C1\N=C(c2ccc(F)cc2)OC1=O | – | inconclusive: 39.8 µM [inhibitor, single point]
61 | C=CCOc1c(CNc2cccc(C(=O)O)c2)cccc1OC | – | inconclusive: 0.158 µM [inhibitor, single point]
62 | Cc1ccc2c(CN3CCCc4ccccc43)cc(=O)oc2c1C | – | inconclusive: 31.6 µM [inhibitor, single point]
63 | CCC(CC)=N/N=C/c1c(O)n(CC)c2cc(C3=NNC(=O)CC3)ccc12 | – | inconclusive: 31.6 µM [activator, partial curve]
